The campaign covered roughly 390,000 compounds. About 17,000 (4.4%) were called active. Inconclusive means that the source gave no clear call. Such entries were picked first, then a sample of the others. Calls follow the shape of the dose curve; as a rule, active = well fitted inhibition curve with a large enough effect; inconclusive = small, poorly fitted or top-dose-only effect; inactive = no such curve, though single readings can be large or run the other way. Potencies beside an inconclusive call are fits to weak or partial responses and may not hold up.
molecular target: Lysine-specific demethylase 4A (Homo sapiens) (UniProt O75164); test: qHTS Assay for Inhibitors of JMJD2A-Tudor Domain; details: AlphaScreen JMJD2A-Tudor / H3K4me3 peptide binding; activity change, negative = inhibition: at 114 µM (top of the series); also: nearly all actives have a fitted effect of over 50% in size
Description: JMJD2A is a jumonji-domain-containing lysine demethylase that uses Fe(II) together with 2-OG to effect oxidative demethylation of histones. Methylation is one of many […] modification that affect epigenetic transcription. […] It is proposed that the functions of JmjD2A binding to the histones, is to maintain marks after they are installed and to spread the modifications by […], establishing a self-propagating cycle for rapid methylation over a large area of chromatin. […] Thus, small molecule targeting of the JMJD2A-tudor domain interaction with its target methylhistone mark is expected to enable sophisticated experiments probing the fine regulatory pathways leading to selective demethylation of a given methyllysine locus based on the methylation state of adjacent histone marks. A quantitative high throughput AlphaScreen has been developed to identify small molecule inhibitors based on a protocol published by NCGC and SGC [4].
Although AlphaScreen has significant advantages with its utility in a variety of epigenetic target assays, the primary screening data provided in this deposition should be used with caution due to the prevalence of screening artifacts. The top compound concentration tested was high (>100uM) in this assay, which increases number of actives and potential artifacts. An AlphaScreen counterscreen is highly recommended to be run against any putative actives to eliminate non-specific artifacts. Alternatively, one can use other AlphaScreen assays in PubChem to filter out promiscuous hits.
[1] Lee, J. et al. Distinct binding modes specify the recognition of methylated histone H3K4 and H4K20 by JMJD2A-tudor. Nat Struct Mol Biol. 15(1); 109-11. 2008. PMID: 18084306
[2] Yasgar, et al. Compound Management for Quantitative High-Throughput Screening. JALA. 2008 Apr;13(2):79-89. PMID: 18496600
[3] Inglese, et al. Quantitative high-throughput screening: a titration-based approach that efficiently identifies biological activities in large chemical libraries. Proc Natl Acad Sci. 1;103(31):11473-8. 2006. PMID: 16864780
[4] Quinn et al. A homogeneous method for investigation of methyl-dependent protein-protein interactions in epigenetics. Nucleic Acids Res., 38(2):e11. 2010. PMID: […]
[5] Baell,Holloway. New substructure filters for removal of pan assay interference compounds (PAINS) from screening libraries and for their exclusion in bioassays. J Med Chem. 53(7):2719-40. 2010. PMID: 20131845
NIH Molecular Libraries Probe Production Network [MLPCN]
NIH Chemical Genomics Center [NCGC]
Structural Genomics Consortium (SGC)
To each well of a 1,536w plate, 2ul of JMJD2A-Tudor (final 100nM) and 1ul biotinylated histone peptide methylated at Lys4 [b-H3(1-18)K4me3] (final 50nM) were added in 1x PBS buffer, pH 7.4, containing 0.01% Tween-20, using a nanoliter dispenser. Formation of a protein-peptide complex proceeded at room temperature for 30 min. A Kalypsys pin-tool transferred 23nl of library compound solution in DMSO to each well. Following a 30 min incubation of the protein-peptide complex with compounds at room temperature, a mixture of 40 µg/mL each streptavidin-coated donor and nickel chelate acceptor AlphaScreen beads (final 10 µg/mL) was added in a 1ul dispense for a final volume of 4ul, followed by a brief centrifugation (1000 rpm, 1 min). Plates were incubated protected from the light for 20 min at room temperature. Microplates were then read on an EnVision multilabel plate reader using the 1,536 plate HTS AlphaScreen aperture (excitation time 80 ms, measurement time 240 ms).
% is scaled to controls: 0 for no effect and ±100 for the full control effect; potency is read from the fitted curve at half-maximal effect; tags tell the direction and shape of the fitted curve.

Sequence of UniProt O75164 (O75164 whole entry, looked up, the tested form may be a part): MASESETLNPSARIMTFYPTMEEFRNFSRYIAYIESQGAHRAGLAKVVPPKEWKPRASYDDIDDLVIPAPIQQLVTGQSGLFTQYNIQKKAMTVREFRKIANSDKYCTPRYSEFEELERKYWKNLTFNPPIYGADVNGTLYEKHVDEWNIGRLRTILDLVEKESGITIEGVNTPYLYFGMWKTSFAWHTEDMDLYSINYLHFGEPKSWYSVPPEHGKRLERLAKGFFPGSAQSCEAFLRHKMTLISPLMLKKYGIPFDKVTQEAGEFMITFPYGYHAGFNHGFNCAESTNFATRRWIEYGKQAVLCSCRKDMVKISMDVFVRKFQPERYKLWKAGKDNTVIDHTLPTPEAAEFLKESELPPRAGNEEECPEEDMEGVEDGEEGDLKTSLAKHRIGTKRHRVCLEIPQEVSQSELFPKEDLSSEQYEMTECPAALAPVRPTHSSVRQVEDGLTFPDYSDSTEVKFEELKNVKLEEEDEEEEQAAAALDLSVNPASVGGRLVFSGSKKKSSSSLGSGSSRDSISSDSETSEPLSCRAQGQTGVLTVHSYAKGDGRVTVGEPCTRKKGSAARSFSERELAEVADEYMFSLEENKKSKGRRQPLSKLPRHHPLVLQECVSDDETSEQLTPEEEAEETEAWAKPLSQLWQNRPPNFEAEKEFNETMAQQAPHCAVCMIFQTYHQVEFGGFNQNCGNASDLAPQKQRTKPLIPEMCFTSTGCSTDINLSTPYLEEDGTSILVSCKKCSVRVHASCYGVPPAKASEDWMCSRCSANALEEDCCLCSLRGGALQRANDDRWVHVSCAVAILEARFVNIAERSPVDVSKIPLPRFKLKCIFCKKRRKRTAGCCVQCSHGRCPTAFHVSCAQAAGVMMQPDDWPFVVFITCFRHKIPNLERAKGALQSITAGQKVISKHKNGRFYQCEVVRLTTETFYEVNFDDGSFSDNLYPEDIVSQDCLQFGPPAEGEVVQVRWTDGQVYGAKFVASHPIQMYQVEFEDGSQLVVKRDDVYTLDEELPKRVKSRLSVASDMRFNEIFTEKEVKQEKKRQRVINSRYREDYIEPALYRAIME

SMILES | Potency | activity change, negative = inhibition
CC(=O)N1C(=O)/C(=C2\SC(=S)N(NC(=O)c3ccc(O)cc3)C2=O)c2ccccc21 | inconclusive: 39.8 µM [inhibitor, partial curve] | –
CSc1cccc(NC(=O)CN2C(=O)COc3ccc(S(=O)(=O)N4CCC(C)CC4)cc32)c1 | – | inactive: -18.3%
Cc1ccc(C)c(-n2c3nc(=O)[nH]c(=O)c-3cc3cc([N+](=O)[O-])ccc32)c1 | inconclusive: 39.8 µM [inhibitor, full curve] | –
CC(=O)N1CCN(c2nc(-c3ccco3)c3c(c2C#N)CC(C)(C)SC3)CC1 | – | inactive: -15.1% [at 11.4 µM]
COc1cc2ncnc(N(C)Cc3csc(C)n3)c2cc1-c1ccc2c(c1)OCO2 | active: 8.91 µM | –
O=C(CN1C(=O)CC(c2ccco2)Sc2ccccc21)Nc1ccccc1F (stereo unspecified) | inconclusive: 50.1 µM [inhibitor, partial curve] | –
COc1ccc(C(=O)c2ccc([N+](=O)[O-])cc2Cl)cc1 | active: 56.2 µM | –
Cc1ccccc1CNC(=O)c1ccc2[nH]c(C)c(C)c2c1 | active: 50.1 µM | –
Cc1cc(C)c2sc(NC(=O)c3ccc(N4C(=O)CCC4=O)cc3)nc2c1 | – | inactive: 2.46%
CC(C)(C)c1ccccc1NC(=O)c1cnn2c(C(F)F)cc(-c3ccccc3)nc12 | – | inactive: -10.3%
COc1ccc(Nc2ccnc(Nc3ccc(OC)cc3)n2)cc1 | inconclusive: 44.7 µM [inhibitor, partial curve] | –
COc1ccc(N2CCN(C(=O)c3csc4ccccc34)CC2)cc1 | inconclusive: 56.2 µM [inhibitor, partial curve] | –
CCC(=O)OC1(C)C(=O)C2=COC(c3ccc(OC)cc3)=CC2=C(Br)C1=O (stereo unspecified) | inconclusive: 79.4 µM [inhibitor, partial curve] | –
S=c1[nH]c2ccccc2n2c(=S)[nH]nc12 | active: 22.4 µM | –
CCOC(=O)N1CCC(N2Cc3cccc(C(=O)Nc4ccc(S(=O)(=O)N(CC)CC)cc4)c3C2=O)CC1 | inconclusive: 56.2 µM [inhibitor, partial curve, poor fit] | –
CCOC(=O)C(NC(C)=O)C(=O)Nc1ccc(OC)cc1 (stereo unspecified) | – | inactive: -15.2%
Cc1cc(C)n(-c2nc(Nc3ccccc3)nc(-n3nc(C)cc3C)n2)n1 | inconclusive: 50.1 µM [inhibitor, partial curve] | –
O=C(O)c1ccc(N2CCN(C(c3ccccc3)c3ccccc3)CC2)c([N+](=O)[O-])c1 | inconclusive: 50.1 µM [inhibitor, partial curve] | –
CN(CC(=O)Nc1ccc(C#N)cc1)CC(=O)Nc1ccc(N2CCOCC2)cc1 | active: 39.8 µM | –
CN(Cc1cccs1)C(=O)C1CC(=O)N(Cc2ccccc2)C1 (stereo unspecified) | – | inactive: -5.48%
CC(C)OP(=O)(c1ccc(N(C)C)cc1)C(O)c1ccc(N(C)C)cc1 (stereo unspecified) | active: 4.47 µM | –
C=CCn1c(C(C)NC(=O)c2ccc(C)cc2)n[nH]c1=S (stereo unspecified) | active: 8.91 µM | –
O=C(c1ccc(N2C(=O)C3CC=C(Cl)CC3C2=O)cc1)N1CCCCC1 (stereo unspecified) | – | inactive: -9.93%
COc1ccc(N(CC(=O)N/N=C/c2ccc(N(C)C)cc2)S(=O)(=O)c2ccccc2)cc1 | inconclusive: 39.8 µM [inhibitor, partial curve] | –

SMILES | Potency | activity change, negative = inhibition
COc1ccc(OC)c(NC(=O)C2C3CCC(C3=C(C)C)C2C(=O)O)c1 (stereo unspecified) | inconclusive: 79.4 µM [inhibitor, partial curve] | –
O=C1c2ccc(-c3ccc(F)cc3OCc3ccccc3)cc2S(=O)(=O)c2cccc(C(=O)N3CCN(c4ncc(Cl)cc4Cl)CC3)c21 | inconclusive: 89.1 µM [inhibitor, partial curve] | –
O=C(CSc1nc2ccccc2[nH]1)Nc1nc(-c2ccccc2)c(-c2ccccc2)o1 | inconclusive: 44.7 µM [inhibitor, partial curve] | –
COc1ccc(CN2C(=O)C(C)Nc3ncnc(N4CCN(c5ccccc5)CC4)c32)cc1 (stereo unspecified) | inconclusive: 0.631 µM [inhibitor, full curve, poor fit] | –
Cc1ncc(CN2CCCC(C(=O)Nc3ccc(-c4cccc(F)c4)cc3)C2)n1C (stereo unspecified) | inconclusive: 50.1 µM [inhibitor, partial curve] | –
CCOc1cc(/C=N/Nc2nc(-c3cccc(S(=O)(=O)N4CCCC4)c3)cs2)ccc1O | inconclusive: 44.7 µM [inhibitor, partial curve] | –
Cc1nn(C(=O)c2cccc([N+](=O)[O-])c2)c(C)c1Cl | – | inactive: -25.2%
Cc1cc(C)nc(SCc2nnc(SCC(N)=O)o2)n1 | – | inactive: 4.03%
Cc1nc(-c2ccccc2)cc(=O)[nH]1 | – | inactive: -3.38%
COc1ccc(C(=O)NNC(=O)COc2ccc(Cl)cc2)c(OC)c1 | – | inactive: -16.6%
COc1ccc(NCC(=O)N/N=C/C=C\c2ccccc2)cc1 | inconclusive: 39.8 µM [inhibitor, partial curve] | –
COc1cc(NS(=O)(=O)c2ccc(NC(=S)NC(=O)c3sc4ccccc4c3Cl)cc2)ncn1 | inconclusive: 79.4 µM [inhibitor, partial curve] | –
O=C1C2C3C=CC(C3=C(c3ccccc3)c3ccccc3)C2C(=O)N1Cc1ccccc1 (stereo unspecified) | – | inactive: -17.9%
COC(=O)CCC(=O)OC1(C)C(=O)C2=CN(CCc3c[nH]c4ccccc34)C(c3ccc(OC)cc3)=CC2=C(Br)C1=O (stereo unspecified) | inconclusive: 56.2 µM [inhibitor, partial curve] | –
CCOC(=O)Cn1c(=O)c(F)cn(Cc2ccc(OC)c([N+](=O)[O-])c2)c1=O | inconclusive: 39.8 µM [inhibitor, single point] | –
COc1ccc(C(C(=O)NC(C)C)N(C(=O)CCC(=O)Nc2nccs2)c2ccccc2F)cc1 (stereo unspecified) | inconclusive: 11.2 µM [inhibitor, full curve, poor fit] | –
O=C(Nc1ccccc1)/C(=C\c1ccccc1)NC(=O)c1ccco1 | – | inactive: -4.83%
COc1ccc(-n2nc(C(=O)Nc3cccc(C)n3)c3c4ccccc4n(C)c3c2=O)cc1 | – | inactive: -12%
COc1cc(/C=N/NC(=O)NC2CCCCC2)ccc1O | – | inactive: -14.1%
Cc1ccc2c(c1)-c1ncc(C(=O)c3cc(Br)ccc3O)cc1CO2 | inconclusive: 14.1 µM [inhibitor, full curve] | –
Cc1ccc(NC2CCCCC2NS(=O)(=O)c2ccccc2)c(C)c1 (stereo unspecified) | inconclusive: 70.8 µM [inhibitor, single point] | –
C=CCCC(=O)Nc1nc(C)c(-c2csc(Nc3cc(Cl)ccc3OC)n2)s1 | inconclusive: 56.2 µM [inhibitor, partial curve, poor fit] | –
COC(=O)c1cn(C(=O)c2ccc(C)cc2)c2ccccc12 | inconclusive: 39.8 µM [inhibitor, single point] | –
CC(=O)c1c(C)[nH]c(C(=O)NC2CCSc3ccccc32)c1C (stereo unspecified) | inconclusive: 31.6 µM [inhibitor, partial curve] | –

SMILES | Potency | activity change, negative = inhibition
C[C@H](NC(N)=O)C(=O)Nc1ccc(N2CCOCC2)c(S(=O)(=O)Nc2ccc(Cl)cc2)c1 | inconclusive: 25.1 µM [inhibitor, partial curve] | –
O=C(CSc1ccc2nnc(CCNC(=O)c3ccccc3)n2n1)NCc1ccc(F)cc1 | – | inactive: -7.64%
CCCCNc1c(-c2ccc(OC)c(Sc3ccc(OC)cc3)c2)nc2ccc(Cl)cn12 | inconclusive: 63.1 µM [inhibitor, partial curve] | –
Cc1cc(NS(=O)(=O)c2ccc(Nc3nc(-c4ccc(O)cc4)cs3)cc2)no1 | inconclusive: 70.8 µM [inhibitor, single point] | –
Cc1[nH]n(-c2ccccc2)c(=O)c1N=Nc1ccc(C(=O)O)cc1 | inconclusive: 79.4 µM [inhibitor, partial curve] | –
CN(C(=O)COC(=O)CCc1c[nH]c2ccccc12)c1ccccc1 | inconclusive: 50.1 µM [inhibitor, partial curve] | –
CCOC(=O)c1cc(S(=O)(=O)Nc2ccccc2OCC)[nH]n1 | active: 50.1 µM | –
Cc1ccccc1CSc1nc2c([nH]c3ccccc32)c(=O)n1C | – | inactive: -7.74%
Cc1ccc(-n2ncc(C(=O)NCCN3CCc4ccccc4C3)c2C2CCNCC2)cc1C | – | inactive: -22.7%
CC(Oc1cc2oc(=O)cc(-c3ccccc3)c2cc1Cl)C(=O)NCC1CCC(C(=O)O)CC1 (stereo unspecified) | – | inactive: -16.3%
NC(=NCCc1c[nH]c2ccccc12)NS(=O)(=O)c1ccc2ccccc2c1 | inconclusive: 70.8 µM [inhibitor, single point] | –
CCN1CCCC1CNCC(O)COc1ccc(C(C)(C)C)cc1C (stereo unspecified) | active: 1.58 µM | –
CC(=O)c1cccc(Nc2ccc3cc(S(=O)(=O)N4CCCC4)ccc3n2)c1 | – | inactive: 0.649%
O=C(c1ccc(Cl)cc1)c1ccccc1C(=O)N1CCOCC1 | – | inactive: -11.5%
CCOc1ccccc1NC(=O)c1nn(C)c2c1CSc1ccccc1-2 | inconclusive: 39.8 µM [inhibitor, full curve] | –
COc1ccccc1C(=O)NNC(=S)NC(=O)c1sc2ccccc2c1Cl | – | inactive: -31.8%
CCN(CC)CCSc1nc2ccccc2c(=S)n1-c1ccccc1 | active: 50.1 µM | –
Cc1nn(-c2nnc(NCc3ccccc3)nn2)c(C)c1Br | active: 50.1 µM | –
CC(C)c1ccc(NC(=O)Cn2nnc(C(=O)NCCc3ccccc3)c2N)cc1 | inconclusive: 10 µM [inhibitor, partial curve] | –
COc1ccccc1N1CCN(c2ncc3c(n2)CCN(Cc2ccccc2C)C3)CC1 | – | inactive: -7.62%
Cc1nn(-c2ccccc2)c(-n2cccc2)c1C(=O)NCCCN1CCN(c2ccccc2F)CC1 | inconclusive: 79.4 µM [inhibitor, partial curve] | –
Cn1cnc2nc[nH]c2c1=S | active: 3.55 µM | –
CCc1ccc(OCc2n[nH]c(=S)n2Cc2ccccc2)cc1 | inconclusive: 56.2 µM [inhibitor, partial curve, poor fit] | –

— PubChem BioAssay AID504339 (National Center for Advancing Translational Sciences (NCATS), 2011)
